For 28 compounds, activity change, negative = inhibition results are on record in PubChem BioAssay AID1745853 (National Center for Advancing Translational Sciences (NCATS), 2022).

Several values for one entry are separate records, joined by “and”; a condition that tells them apart may be missing. Identical values can stand only once. The list shows a part of the results. Shown are side measurements of this screen, not its main read-out; they come without a call.

Common to all, as to experiment: Primary Screen for Target Class Profiling of Small Molecule Inhibitors of Methyltransferases
Test [1] addresses Glycine N-methyltransferase (Homo sapiens) (UniProt Q14749). The settings on record: purified enzyme, MTase-Glo SAH luminescence; measured here: GNMT inhibition; at 40 µM; stronger effect = lower value. In outline:
(§1)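 Each enzyme was assayed with SAM and its substrate. SAH formation detected by MTase-Glo luminescence; single-point 40 uM screen[…].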

For test [2], the target named is Guanidinoacetate N-methyltransferase (Homo sapiens) (UniProt Q14353). The settings on record: purified enzyme, MTase-Glo SAH luminescence; measured here: GAMT inhibition; at 40 µM; stronger effect = lower value. In outline: as §1
Test [3] concerns the target Histamine N-methyltransferase (Homo sapiens) (UniProt P50135). Particulars: purified enzyme, MTase-Glo SAH luminescence; measured here: HNMT inhibition; at 40 µM; stronger effect = lower value. In outline:
as §1

The target of test [4] is Nicotinamide N-methyltransferase (Homo sapiens) (UniProt P40261). Particulars: purified enzyme, MTase-Glo SAH luminescence; measured here: NNMT inhibition; at 40 µM; stronger effect = lower value. In outline: as §1
Test [5] addresses Phenylethanolamine N-methyltransferase (Homo sapiens) (UniProt P11086). Particulars: purified enzyme, MTase-Glo SAH luminescence; measured here: PNMT inhibition; at 40 µM; stronger effect = lower value. In outline:
as §1
% is scaled to controls: 0 for no effect and ±100 for the full control effect.

As to `Fc1cccc(CN2CCO[C@@H](COc3ccccn3)[C@@H]2c2ccccc2)c1`, the activity change, negative = inhibition in test [1] was -5.89%; in test [2] it was -6.8%; in test [3], -0.165%; in test [4], -12.2%; in test [5] it was -7.48%.
As for `CC1CCC(NC(=O)C2(C)Cn3c(ccc3-c3ccco3)C(=O)N2Cc2ccc(Cl)cc2)CC1` (stereo not given), the activity change, negative = inhibition in test [1] was 4.65%; in test [2], 0%; in test [3] it was 8.95%; in test [4], 7.06%; in test [5] it was -4.52%.
`Cc1ccnn1CCC(=O)N[C@@H]1COCC[C@H]1Oc1ccc(C(N)=O)cc1`: the activity change, negative = inhibition in test [1] was -1.23%; in test [2], 0.516%; in test [3], 1.78%; in test [4] it was -0.206%; in test [5] it was 4.63%.
Take `CC(C)OCCCNC(=O)CCc1nnc2n(CCc3ccccc3)c(=O)c3ccccc3n12`: the activity change, negative = inhibition in test [1] was -8.56%; in test [2], 0%; in test [3], -0.902%; in test [4], 6.42%; in test [5], -1.18%.
For `O=C(NC(NC(=S)Nc1ccc(F)c([N+](=O)[O-])c1)C(Cl)(Cl)Cl)C(c1ccccc1)c1ccccc1` (stereo not given), the activity change, negative = inhibition in test [1] is -5.85%; in test [2], -13.6%; in test [3] it was 7.65%; in test [4], -19%; in test [5], -2.98%.
In the case of `Cc1ccc(NS(=O)(=O)c2ccc3c(c2)n(C)c(=O)n3C)cc1C`, the activity change, negative = inhibition is -5.16% in test [1]; 0.349% in test [2]; -3.07% in test [3]; -7.23% in test [4]; -2.65% in test [5].
The corresponding values for `CN(C)c1cccc(Oc2cnc(Nc3cccc(O)c3)nc2)c1` are 0.434%, 6.18%, 10.7%, -14.8% and 4.92%.
The corresponding values for `CCC(CCO[C@@H]1O[C@H](CO[C@H]2OC[C@](O)(CO)[C@H]2O)[C@@H](O)[C@H](O)[C@H]1O)C(C)(C)O` (stereo not given in full) are 6.89%, 8.88%, 3.33%, -4.87% and 6.28%.
Turning to `CCOC(=O)N1CCN(C(C(=O)O)c2ccc(OC)nc2OC)CC1` (stereo not given), the activity change, negative = inhibition in test [1] is -2.09%; in test [2] it was -4.35%; in test [3], -0.754%; in test [4], -5.54%; in test [5] it was -9.86%.
As to `COc1cccc(NS(=O)(=O)c2cc3[nH]c(=O)[nH]c3cc2C)c1`, the activity change, negative = inhibition in test [1] was 6.65%; in test [2] it was 0.229%; in test [3], 1.21%; in test [4], -4.33%; in test [5] it was -1.37%.
Regarding `CC1CCC(NC(=O)C2(C)Cn3c(cc4sccc43)C(=O)N2CCc2ccc(Cl)cc2)CC1` (stereo not given), the activity change, negative = inhibition was 6.4% in test [1]; -24.6% in test [2]; 8.59% in test [3]; 5.23% in test [4]; 0.369% in test [5].
For `O=[S+]1([O-])NC2(CCN(Cc3ccc(F)cc3)CC2)CNc2ccccc21`, the activity change, negative = inhibition is -2.2% in test [1]; -1.69% in test [2]; -19% in test [3]; -5.18% in test [4]; -7.37% in test [5].
In the case of `CC1CC=C2C1CC1(O)C(=O)CC2(C)C1(C)CO` (stereo not given), the activity change, negative = inhibition was -0.109% in test [1]; -2.76% in test [2]; -1.34% in test [3]; -15.9% in test [4]; 3.87% in test [5].
The corresponding values for `COCCN1C(=O)c2nc3ccccc3n2CC1(C)C(=O)NC1CCCCCC1` (stereo not given) are 0.966%, 3.18%, 0.232%, -0.56% and 0.283%.
As for `COc1ccc(OC)c2c1cc1n2CC(C)(C(=O)NC2CCCC2)N(CCc2ccccc2)C1=O` (stereo not given), the activity change, negative = inhibition in test [1] was -6.59%; in test [2], 1.07%; in test [3] it was 5%; in test [4] it was 6.88%; in test [5] it was -0.073%.
As to `CCOc1ccc(NS(=O)(=O)c2cc3c(cc2C)n(C)c(=O)n3C)cc1`, the activity change, negative = inhibition in test [1] is -4.31%; in test [2], 3.32%; in test [3], -9.81%; in test [4] it was -13%; in test [5] it was -8.82%.
The matching figures for `C=CCn1c(=O)c2ccc(C(=O)NCC(C)C)cc2n2c(=O)n(CC(=O)Nc3ccc(C)cc3)nc12`: 1.48%, 2.69%, -0.729%, -3.89% and -1.74%.
The corresponding values for `CC1CCN(S(=O)(=O)c2ccc3c(ccn3CCC(=O)NCCc3ccccc3Cl)c2)CC1` are -0.434%, 5%, 2.32%, -4.32% and -1.22%.
For `CC(C)(C)c1cc2n(n1)CC(C)(C(=O)NCc1ccccc1)N(c1ccc(F)cc1)C2=O` (stereo not given), the activity change, negative = inhibition in test [1] came out at 5.49%; in test [2], 0%; in test [3], 4.68%; in test [4], 4.03%; in test [5], 0.654%.
The matching figures for `CS(=O)(=O)NCCc1ccc(CC2CCN(C(=O)c3cnccn3)CC2)cc1`: -0.753%, -1.31%, 0.605%, 0.284% and 3.1%.
Turning to `Cc1ccc(Nc2ccn3c(=O)n(CC(=O)Nc4ccc(F)c(F)c4)nc3n2)cc1`, the activity change, negative = inhibition was 4.62% in test [1]; 0% in test [2]; -1.47% in test [3]; -4.17% in test [4]; 0.315% in test [5].
On to `Cn1cc(C2=C(c3ccc(Cl)cc3Cl)C(=O)NC2=O)c2ccccc21`, for which the activity change, negative = inhibition is -12.4% in test [1]; -19% and -2.91% in test [2]; -8.52% in test [3]; -33.7% and -18% in test [4]; -7.78% and -8.18% in test [5].
As for `O=C(CCn1ccc2cc(S(=O)(=O)N3CCCCC3)ccc21)NCc1ccccc1F`, the activity change, negative = inhibition in test [1] is 5.46%; in test [2], 1.55%; in test [3], 6.45%; in test [4] it was -3.6%; in test [5], 0.964%.
Consider `CC#C[C@@H](CC(=O)O)c1ccc(OCc2ccc(CN3CCC4(C=Cc5ccccc54)CC3)s2)cc1`, for which the activity change, negative = inhibition in test [1] is -9.19%; in test [2], 10.4%; in test [3] it was 5.06%; in test [4] it was -35.5%; in test [5], -9.1%.
The corresponding values for `COc1ccccc1CNC(=O)CCc1nnc2n(CCCOC(C)C)c(=O)c3ccccc3n12` are -5.03%, -5.14%, 9.39%, 7.74% and -4.33%.
As for `CCOC(=O)c1cc2n(n1)CC(C)(C(=O)NC1CCCC1)N(Cc1ccc(OC(C)C)cc1)C2=O` (stereo not given), the activity change, negative = inhibition in test [1] is -1.9%; in test [2], 0.968%; in test [3], -0.239%; in test [4] it was -7.66%; in test [5] it was -2%.
With `Cc1ccc(C(=O)Nc2ccc(S(=O)(=O)O)c3cc(S(=O)(=O)O)cc(S(=O)(=O)O)c23)cc1NC(=O)c1cccc(NC(=O)Nc2cccc(C(=O)Nc3cc(C(=O)Nc4ccc(S(=O)(=O)O)c5cc(S(=O)(=O)O)cc(S(=O)(=O)O)c45)ccc3C)c2)c1`, the activity change, negative = inhibition was -61.1% in test [1]; -5.86% in test [2]; -1.89% in test [3]; -14.3% in test [4]; -12.6% in test [5].
Consider `Cc1ccc(C)c(NC(=O)N2CCn3cccc3C2Cc2ccccc2)c1` (stereo not given), for which the activity change, negative = inhibition is -12.8% in test [1]; -0.518% in test [2]; -16.9% in test [3]; -13.9% in test [4]; -10.3% in test [5].
